PubChem BioAssay (NCATS)
The shares of active, inactive and inconclusive entries below differ from those in the screen. For some of these results: Where the call is inconclusive, the potency comes from a doubtful curve fit. Calls of active or inactive are those of the source. Unless noted, calls follow the shape of the dose curve; as a rule, active = well fitted curve in the direction sought with a large enough effect; inconclusive = small, poorly fitted or top-dose-only effect, or another doubt; inactive = no such curve, though single readings can be large; an effect the other way counts as inactive or inconclusive.

What was measured:
[1] = Confirmatory screen GU Rhodamine qHTS for Zika virus inhibitors qHTS (AID 1347157); also: nearly all actives have a fitted effect of over 70% in size; also: potency is read from the fitted curve at half-maximal effect;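 as to activity change, negative = inhibition: plate controls were no-inhibitor wells for no effect and no-enzyme wells for full effect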
Method in brief: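 Noncovalent NS2B hydrophilic domain/NS3 protease complex (25 nM final) in 10 mM Tris-HCl pH 8.0, 0.01% Tween 20, preincubated 15 min with compounds (up to 114 microM), then 1.5 microM Rhodamine110 substrate. Fluorescence change over 15 min fitted to 4-parameter Hill.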

[2] = Confirmatory screen NINDS Rhodamine qHTS for Zika virus inhibitors (AID 1347161); also: nearly all actives have a fitted effect of over 60% in size; also: potency is read from the fitted curve at half-maximal effect;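 as to activity change, negative = inhibition: purified Zika NS2B-NS3 protease with linked NS2B cofactor domain and Rhodamine110 peptide substrate; plate controls were no-inhibitor control for no effect and no-enzyme control for full effect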
Method in brief: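 Purified linked NS2B-NS3 protease (NS2B hydrophilic domain joined to NS3 protease by flexible linker), 25 nM in 10 mM Tris-HCl pH 8.0, 0.01% Tween 20. Compounds titrated, 15 min preincubation at room temperature; 1.5 microM Rhodamine110 substrate, FITC fluorescence change over 15 min.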

[3] = ZIKV-mCherry secondary qHTS for Zika virus inhibitors (AID 1347158); settings: Vero cells, ZIKV-mCherry infection imaging, 48-72 h; activity change, negative = inhibition: at 49.2 µM (top of the series); also: potency is read from the fitted curve at half-maximal effect; as to activity change, negative = inhibition: top concentration of the series differs between compounds
Method in brief: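 Vero cells, 5,000/well, plated overnight at 37 °C, then compound added and infected with recombinant ZIKV-mCherry at MOI 1 for 48-72 h. PFA-fixed, Hoechst nuclear stain, high-content imaging; cells with mCherry intensity above 450 RFU scored infected, reported as percent infection.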

[4] = Tertiary RLuc qRT-PCR qHTS assay for Zika virus inhibitors (AID 1347169); also: nearly all actives have a fitted effect of over 55% in size; also: potency is read from the fitted curve at half-maximal effect; as to activity change, negative = inhibition: top concentration of the series differs between compounds; % is scaled to controls: 0 for no effect and ±100 for the full control effect
Method in brief: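 Inhibition of ZIKV-RLuc replication in Vero cells, read as Renilla luminescence 1-1.5 hrs after live-cell substrate addition, following 48-72 hrs infection at MOI 1-2 in presence of compound.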

[5] = molecular target: Rap guanine nucleotide exchange factor 3 (Homo sapiens) (UniProt O95398); assay: Confirmatory qHTS for antagonist of cAMP-regulated guanine nucleotide exchange factor 3 (EPAC1) (AID 1645880); settings: EPAC1 Rap1B-BODIPY-GDP exchange, fluorescence; activity, negative = inhibition: at 115 µM (top of the series);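 also: plate controls were DMSO only for no effect and full effect of the ATA control for full effect; nearly all actives have a fitted effect of over 55% in size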
Method in brief: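 Nucleotide exchange uses 100 nM EPAC1, 250 nM RAP1B-BODIPY-GDP and 50 uM GDP, with compounds in a concentration-titration series. After 5 min at room temperature, fluorescence (480 nm ex/540 nm em) is read every 5 min for 30 min. Data are normalized to control ATA and DMSO.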

[6] = molecular target: Rap guanine nucleotide exchange factor 3 (Homo sapiens) (UniProt O95398); assay: Confirmatory qHTS for agonist of cAMP-regulated guanine nucleotide exchange factor 3 (EPAC1) (AID 1645881); settings: EPAC1 Rap1B BODIPY-GDP exchange fluorescence; activation: at 154 µM (top of the series), 100% = cAMP control response;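 also: EPAC1 catalysed release of BODIPY-GDP from Rap1B seen as fluorescence loss; nearly all actives have a fitted effect of over 75% in size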
[7] = molecular target: Rap guanine nucleotide exchange factor 3 (Homo sapiens) (UniProt O95398); assay: Counterscreen qHTS for agonist of cAMP-regulated guanine nucleotide exchange factor 3 (EPAC1) (AID 1645889); settings: EPAC1 Rap1B-BODIPY-GDP exchange, fluorescence; activation: at 154 µM (top of the series) unless noted; also: % of control where 0% means no effect; nearly all actives have a fitted effect of over 40% in size
Method in brief: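 Rap1B–BODIPY-GDP (250 nM) with 50 uM GDP; compounds pin-transferred to 9.74 nM–152 uM final (activator) or from 7.32 nM upwards (inhibitor). Fluorescence Ex/Em 480/540 nm read at 5 and 30 min, then after adding cAMP or buffer, at room temperature.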

[8] = qHTS Assay for Lipid Storage Modulators (AID 1519; calls by dose curve; also: % is scaled to controls: 0 for no effect and ±100 for the full control effect); settings: Drosophila S3 cells, BODIPY lipid droplet/cell ratio, laser cytometry, cells loaded with oleic acid; activity change, negative = inhibition: at 57.5 µM (top of the series) unless noted
Method in brief: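 Cells seeded at 5,000 per well were treated with compounds over a concentration series and loaded with oleic acid (400 uM, as added). Lipid droplet fluorescence (488 nm excitation, 500-530 nm channel) was read by laser-scanning cytometry and normalized to 20 uM Triacsin C.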

[9] = system: Zika virus NS2B-NS3 protease (linked construct); assay: 384 well plate NINDS Rhodamine confirmatory qHTS for Zika virus inhibitors (AID 1347164); also: nearly all actives have a fitted effect of over 65% in size; also: potency is read from the fitted curve at half-maximal effect;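 as to activity change, negative = inhibition: top concentration of the series differs between compounds; plate controls were no-inhibitor control for no effect and no-enzyme control for full effect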
Method in brief: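 Cleavage of Ac-LKRR-Rhodamine 110 (10 microM final) by linked protease (final 5, 30 or 60 nM) was followed as fluorescence at 485/538 nm after 25 min, room temperature, dark. Compounds preincubated ~15 min.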

[10] = system: Zika virus NS2B-NS3 protease (linked); assay: 384 well plate NINDS AMC confirmatory qHTS for Zika virus inhibitors (AID 1347163); also: nearly all actives have a fitted effect of over 50% in size; also: potency is read from the fitted curve at half-maximal effect;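 as to activity change, negative = inhibition: linked protease at 5 30 or 60 nM final depending on run; fluorescence of AMC released from Ac-VKTGKR-AMC peptide cleaved by the protease; top concentration of the series differs between compounds; 0% = no-inhibitor control and -100% = no-enzyme control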
Method in brief: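 Linked protease 5/30/60 nM final; cpds up to 1 mM final, ~15 min preinc. Substrate Ac-VKTGKR-AMC 30 microM final. RT, dark, 25 min; FI ex 355/em 460; normalized to no-enzyme/no-inhibitor ctrls.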

[11] = molecular target: Cytochrome P450 2D6 (Homo sapiens) (UniProt P10635); assay: Cytochrome P450 family 2 subfamily D member 6 (CYP2D6) small molecule antagonists: luciferase biochemical (cell-free) qHTS assay (AID 1645840; active = well fitted curve in the direction sought with a large enough effect in the repeat runs; inconclusive = weak or mixed curves; inactive = no such curve, though single readings can be large; an effect the other way counts as inactive or inconclusive; also: potency is read from the fitted curve at half-maximal effect; nearly all actives have a fitted effect of over 55% in size)
Method in brief: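 P450-Glo luminescent screen: recombinant CYP2D6 enzyme–proluciferin substrate mix preincubated with compound 10 min at room temperature, then NADPH regeneration added for 1 h at room temperature. Detection reagent added for 20 min; luciferin light read as relative luminescence units.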

[12] = molecular target: DNA polymerase eta (Homo sapiens) (UniProt Q9Y253); assay: qHTS for Inhibitors of Polymerase Eta: Confirmatory Assay for Cherry-picked Compounds (AID 720502); settings: Pol eta primer extension, TAMRA/BHQ fluorescence, 10 min; also: potency is read from the fitted curve at half-maximal effect
Method in brief: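 Human Pol eta (10 nM) was preincubated with compounds for 15 min at room temperature before adding 50 nM (final) DNA substrate: primer plus TAMRA reporter strand annealed to a BHQ-2-labeled template. Fluorescence (ex 525/em 598 nm) was read at 0 and 10 min.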

[13] = system: Zika virus NS2B-NS3 protease (linked construct); assay: Primary screen NINDS Rhodamine qHTS for Zika virus inhibitors (AID 1347160); also: potency is read from the fitted curve at half-maximal effect; nearly all actives have a fitted effect of over 55% in size
Method in brief: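 Kinetic fluorescence (Ex 480 nm, Em 540 nm) over 15 min with 1.5 microM Rhodamine110 peptide and 25 nM linked protease.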

[14] = Primary fluorescence-based thiol-reactive (MSTI) qHTS assay for identification of artifact compounds. (AID 1845221);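 also: potency is read from the fitted curve at half-maximal effect; thiol-reactive compounds lower the probe fluorescence signal; nearly all actives have a fitted effect of over 65% in size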
Method in brief: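 qHTS titration of compound; 4 uM MSTI, PBS pH 7.4, 2% DMSO; 1 h RT, dark; fluorescence 525/598 nm; normalized to Acetyl-MSTI and MSTI; 4-parameter Hill fit.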
Tags tell the direction and shape of the fitted curve.

UniProt O95398, sequence (O95398 whole entry, looked up): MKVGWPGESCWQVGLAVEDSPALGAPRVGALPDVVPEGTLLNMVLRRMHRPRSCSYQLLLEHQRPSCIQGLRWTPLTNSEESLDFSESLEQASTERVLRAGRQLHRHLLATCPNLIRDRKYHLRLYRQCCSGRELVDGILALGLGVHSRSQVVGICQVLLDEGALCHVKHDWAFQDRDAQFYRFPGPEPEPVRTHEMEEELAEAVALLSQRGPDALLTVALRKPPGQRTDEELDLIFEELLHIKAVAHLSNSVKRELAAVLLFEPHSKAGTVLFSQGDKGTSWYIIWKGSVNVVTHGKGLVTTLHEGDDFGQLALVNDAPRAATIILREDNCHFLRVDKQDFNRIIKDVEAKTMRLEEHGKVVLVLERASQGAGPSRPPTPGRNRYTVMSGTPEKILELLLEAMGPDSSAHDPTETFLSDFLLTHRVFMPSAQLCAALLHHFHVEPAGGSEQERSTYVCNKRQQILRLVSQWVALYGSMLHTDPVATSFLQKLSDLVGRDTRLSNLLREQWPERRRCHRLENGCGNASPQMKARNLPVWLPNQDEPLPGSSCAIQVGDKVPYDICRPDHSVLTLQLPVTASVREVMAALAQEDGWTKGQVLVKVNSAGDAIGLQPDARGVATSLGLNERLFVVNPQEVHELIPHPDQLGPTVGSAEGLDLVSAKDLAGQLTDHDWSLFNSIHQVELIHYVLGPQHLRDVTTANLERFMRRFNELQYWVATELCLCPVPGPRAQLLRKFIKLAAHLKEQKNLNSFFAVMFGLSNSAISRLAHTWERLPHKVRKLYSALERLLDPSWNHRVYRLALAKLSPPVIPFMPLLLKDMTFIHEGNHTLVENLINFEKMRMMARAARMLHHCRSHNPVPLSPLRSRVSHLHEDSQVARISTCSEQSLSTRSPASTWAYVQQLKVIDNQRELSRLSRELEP
UniProt P10635, sequence (P10635 whole entry, looked up): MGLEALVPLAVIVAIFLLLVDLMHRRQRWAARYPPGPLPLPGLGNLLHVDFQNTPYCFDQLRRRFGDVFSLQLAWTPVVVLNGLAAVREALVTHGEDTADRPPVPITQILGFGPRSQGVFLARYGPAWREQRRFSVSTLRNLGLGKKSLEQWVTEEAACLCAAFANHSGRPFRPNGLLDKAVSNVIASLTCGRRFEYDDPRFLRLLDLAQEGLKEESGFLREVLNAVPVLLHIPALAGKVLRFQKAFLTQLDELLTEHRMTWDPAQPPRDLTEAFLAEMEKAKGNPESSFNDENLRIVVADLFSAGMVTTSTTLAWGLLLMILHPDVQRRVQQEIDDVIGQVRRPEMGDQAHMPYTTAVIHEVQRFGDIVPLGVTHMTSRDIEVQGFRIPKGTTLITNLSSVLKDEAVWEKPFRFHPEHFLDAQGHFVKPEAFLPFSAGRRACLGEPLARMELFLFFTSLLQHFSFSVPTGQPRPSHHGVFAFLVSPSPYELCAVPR
UniProt Q9Y253, sequence (Q9Y253 whole entry, looked up): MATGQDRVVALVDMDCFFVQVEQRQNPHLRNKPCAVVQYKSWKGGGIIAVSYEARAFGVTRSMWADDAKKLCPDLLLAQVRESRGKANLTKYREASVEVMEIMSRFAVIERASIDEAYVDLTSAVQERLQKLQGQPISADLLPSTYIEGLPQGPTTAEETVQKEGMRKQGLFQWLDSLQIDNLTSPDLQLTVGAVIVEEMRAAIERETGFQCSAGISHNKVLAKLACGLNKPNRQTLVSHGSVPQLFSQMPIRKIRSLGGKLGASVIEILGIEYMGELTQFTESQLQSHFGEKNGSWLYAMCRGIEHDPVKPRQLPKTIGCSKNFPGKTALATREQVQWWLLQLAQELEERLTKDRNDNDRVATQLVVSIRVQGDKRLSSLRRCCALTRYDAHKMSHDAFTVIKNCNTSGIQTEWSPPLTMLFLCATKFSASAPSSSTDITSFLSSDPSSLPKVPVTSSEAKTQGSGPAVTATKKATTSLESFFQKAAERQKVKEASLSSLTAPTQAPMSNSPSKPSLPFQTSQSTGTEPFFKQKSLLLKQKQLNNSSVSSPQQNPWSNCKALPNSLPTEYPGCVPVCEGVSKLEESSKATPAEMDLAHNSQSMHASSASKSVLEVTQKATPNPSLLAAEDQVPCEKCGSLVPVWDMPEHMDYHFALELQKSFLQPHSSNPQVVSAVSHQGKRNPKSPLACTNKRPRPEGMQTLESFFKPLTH

Q: With `COC(=O)c1c(NC(=O)c2cc3nc(-c4ccc(Br)cc4)cc(C(F)(F)F)n3n2)sc2c1CCCC2` as the compound, how does the Potency [1] read?
A: inactive

Q: And the Potency [2]?
A: inactive

Q: What does the source list for `COc1ccc(C(=O)Nc2ccc(C(=O)OCc3cc(=O)n4nc(C5CC5)sc4n3)cc2)cc1`?
A: Potency [1]: inconclusive: 11.2 µM [inhibitor, full curve, poor fit]; Potency [2]: inconclusive: 3.16 µM [inhibitor, full curve]

Q: Which Potency [3] does the source give for `C=C1c2c(Cl)ccc(O)c2C(O)=C2C(=O)[C@]3(O)C(O)=C(C(N)=O)C(=O)[C@@H](N(C)C)[C@@H]3[C@@H](O)C12` (stereo partly drawn) here?
A: inactive

Q: With `CCCCCCc1cc2cc(-c3nnc(-c4cccc(Cl)c4)o3)c(=O)oc2cc1O` as the compound, how does the Potency [1] read?
A: inconclusive: 2 µM [inhibitor, full curve, poor fit]

Q: What about the Potency [4] of the same compound?
A: inconclusive: 390 nM [inhibitor, single point]

Q: And the Potency [5]?
A: inactive

Q: What about the activation [6] of the same compound?
A: inconclusive: 93.4% [activator]

Q: And the activation [7]?
A: inconclusive: 59.7% [activator]

Q: With `O=C(OC1Cc2c(O)cc(O)cc2OC1c1cc(O)c(=O)c2c(O)c(O)cc(C3Oc4cc(O)cc(O)c4CC3OC(=O)c3cc(O)c(O)c(O)c3)c2c1)c1cc(O)c(O)c(O)c1` (stereo not drawn) as the compound, how does the Potency [8] read?
A: inactive

Q: And the Potency [1]?
A: active: 5.01 µM

Q: What about the Potency [9] of the same compound?
A: inactive

Q: And the Potency [4]?
A: inconclusive: 390 nM [inhibitor, partial curve, poor fit]

Q: With `Cc1ccc(-c2nnc(Nc3ccccc3)c3ccccc23)cc1S(=O)(=O)NCc1nc2ccccc2[nH]1` as the compound, how does the Potency [1] read?
A: inconclusive: 44.7 µM [inhibitor, partial curve]

Q: What about the Potency [10] of the same compound?
A: inactive

Q: And the Potency [9]?
A: inconclusive: 200 µM [inhibitor, single point]

Q: And the Potency [4]?
A: inconclusive: 276 nM [inhibitor, single point]

Q: And the Potency [11]?
A: inconclusive: 2.39 µM [inhibitor, full curve, poor fit]

Q: Which Potency [3] does the source give for `Cc1c(Cl)cccc1NS(=O)(=O)c1ccc(NS(=O)(=O)c2ccc3c(c2)OCCO3)cc1` here?
A: inconclusive: 15.8 µM [inhibitor, full curve]

Q: And the Potency [2]?
A: active: 25.1 µM

Q: And the Potency [4]?
A: inconclusive: 631 nM [inhibitor, partial curve, poor fit]

Q: What does the source list for `O=C(COc1ccc(F)cc1)Nc1ccccc1C(=O)OCc1cc(=O)n2nc(C3CC3)sc2n1`?
A: Potency [1]: inconclusive: 5.01 µM [inhibitor, full curve, poor fit]; Potency [4]: inconclusive: 7780 nM [inhibitor, single point]

Q: With `CC(C)c1nn2c(=O)cc(COC(=O)c3ccc(NC(=O)c4ccccc4Cl)cc3)nc2s1` as the compound, how does the Potency [1] read?
A: inactive

Q: And the Potency [2]?
A: inconclusive: 50.1 µM [inhibitor, single point]

Q: What about the Potency [4] of the same compound?
A: inactive

Q: Which Potency [12] does the source give for `O=S(=O)(Nc1ccc(O)c(Sc2nc3ccccc3s2)c1)c1cc(Cl)ccc1Cl` here?
A: inconclusive: 75.7 µM [inhibitor, single point]

Q: And the Potency [1]?
A: inconclusive: 39.8 µM [inhibitor, single point]

Q: And the Potency [3]?
A: inconclusive: 3.98 µM [inhibitor, full curve, poor fit]

Q: With `COc1ccccc1C(=O)Nc1ccc(C(=O)OCc2cc(=O)n3c4c(sc3n2)CCCC4)cc1` as the compound, how does the Potency [1] read?
A: inconclusive: 3.55 µM [inhibitor, full curve]

Q: And the Potency [10]?
A: inconclusive: 22.4 µM [inhibitor, full curve]

Q: And the Potency [9]?
A: inconclusive: 44.7 µM [inhibitor, full curve, poor fit]

Q: What about the activity change, negative = inhibition [4] of the same compound?
A: inactive: -27.3% [at 5.25 µM]

Q: With `CC(C)CC(=O)OC1OC=C(CO[C@@H]2O[C@H](CO)[C@@H](O)[C@H](O)[C@H]2O)C2CC(O)C(O)(CO)C12` (stereo partly drawn) as the compound, how does the Potency [1] read?
A: inconclusive: 19.2 µM [inhibitor, partial curve]

Q: And the Potency [13]?
A: inconclusive: 10 µM [inhibitor, partial curve]

Q: What about the Potency [2] of the same compound?
A: inconclusive: 30.4 µM [inhibitor, partial curve, poor fit]

Q: And the Potency [14]?
A: inconclusive: 10.3 µM [inhibitor, single point]

Q: What does the source list for `Cc1c(Cl)cccc1NC(=O)CSc1ncccc1C(=O)Oc1ccccc1Cl`?
A: Potency [1]: inactive; Potency [2]: inactive

Q: For `O=C(O)Cn1ccc2cc(OCc3cccc(-c4cccc(C(F)(F)F)c4)c3)cnc21`, which Potency [3] is on record?
A: inactive

Q: Which Potency [1] does the source give for `Cc1cccc(OCC(=O)Nc2ccc(C(=O)OCc3cc(=O)n4nc(C5CC5)sc4n3)cc2)c1` here?
A: inconclusive: 50.1 µM [inhibitor, partial curve, poor fit]

Q: What about the Potency [2] of the same compound?
A: inconclusive: 50.1 µM [inhibitor, partial curve]
